Molecules are shown by their SMILES. The campaign covered roughly 150,000 compounds. About 540 (0.36%) showed an effect of 50% or more. The list shows a part of the results.

This experiment relates to Plasmodium falciparum. Description: Primary screen in NF54 nanoGlo assay, in single point, at 2uM, 72h; a lower Z score goes with more inhibition. The format is functional, Erythrocyte. The note with it: timepoint 72 hour.
One may read the % Inhibition as the drop in the measured response relative to a control, in per cent. With `O=C(COc1ccc(Cl)cc1)N1CCc2ccccc2[C@@H]1c1ccc(F)cc1`, the “% Inhibition” value is 4% and the Z score is recorded as -0.54.

For `Cc1ccc(NS(=O)(=O)c2cc(C(=O)NC3CCCCCC3)ccc2C)cc1C`, the “% Inhibition” value is -9% and the Z score is given as 1.07.

For `Cc1cc(NC(=O)CCn2cccn2)no1`, the “% Inhibition” value is 0% and the Z score is recorded as -0.09.

In the case of `CC1CCC(C(N)=O)C(C)N1C(=O)COCC1CCCO1` (centres undefined), the “% Inhibition” value is given as -15% and the Z score was found to be 2.91.

Take `C#CCN(C)Cc1nnc(C)n1CCC`: the “% Inhibition” value was -11% and the Z score is recorded as 1.98.

In the case of `C[C@H](NC(=O)Cc1cccnc1)C1=CCCCC1`, the “% Inhibition” value is recorded as -7% and the Z score was determined as 0.97.

Consider `COc1ccc(NC(=O)[C@@H]2CC(=O)Nc3c(-c4ccc(F)cc4)cnn32)cc1`, for which the “% Inhibition” value was -16% and the Z score was 1.81.

Regarding `Cc1ncc(C(C)NCC2COc3ccccc3O2)c(C)n1` (centres undefined), the “% Inhibition” value is on record as -5% and the Z score was 0.7.

Regarding `Cc1nc2c(NC3CCN(C(=O)NCc4ccco4)CC3)cccn2n1`, the “% Inhibition” value turned out to be 16% and the Z score was -1.83.

For `C[C@H](Nc1ccc2nccnc2n1)C1(CO)CC1`, the “% Inhibition” value stood at 5% and the Z score was -0.94.

Turning to `Cc1ccc(CC(=O)NCCCN2CCOCC2)cc1C`, the “% Inhibition” value is on record as -15% and the Z score amounted to 2.54.

On to `Cc1cc(CS(=O)(=O)Cc2csc(C3CCCCC3)n2)no1`, for which the “% Inhibition” value is -13% and the Z score came to 2.17.

Turning to `CCCCS(=O)(=O)NCCNc1ccc(-n2cccn2)nn1`, the “% Inhibition” value is -8% and the Z score is recorded as 1.53.

On to `CN(Cc1csc(-c2ccccc2)n1)C(=O)c1ccc2c(c1)OCC(=O)N2`, for which the “% Inhibition” value is on record as -8% and the Z score is given as 1.13.

As to `CC(C)(C)c1nnsc1C(=O)Nc1ccc2[nH]ncc2c1`, the “% Inhibition” value is -5% and the Z score worked out at 0.82.

For `COC(=O)C[C@H](NC(=O)Cc1ccc(Cl)cc1)C1CC1`, the “% Inhibition” value was -1% and the Z score worked out at 0.13.

As for `CCN1CCCc2cc(C(=O)NCc3cccc(OC)c3)sc21`, the “% Inhibition” value is on record as -2% and the Z score is given as 0.39.

`CC1(C)CN(C(=O)C2(N)CC3(CCC3)C2)[C@H]1C1CCN(Cc2ccccc2)CC1`: the “% Inhibition” value is recorded as 1% and the Z score is given as -0.07.

On to `Cc1cc(CNC(=O)[C@H]2CCc3nn(CCOc4ccccc4)c(=O)n3CC2)n(C)n1`, for which the “% Inhibition” value stood at 9% and the Z score is given as -1.44.

On to `O=C(O)c1cc(-c2c[nH]c3ccccc23)on1`, for which the “% Inhibition” value is reported as -12% and the Z score is given as 1.46.

For `NCC1CCCN1C(=O)C1CC1c1ccc(F)c(F)c1` (centres undefined), the “% Inhibition” value is -15% and the Z score was 1.51.

Consider `CCC=C(C)C(=O)N1CCCN(C2CCN(CC)CC2)CC1`, for which the “% Inhibition” value is reported as -4% and the Z score turned out to be 0.62.

For the molecule `Cc1ccc2nc(-c3cc4ccccc4o3)cn2c1`, the “% Inhibition” value was 61% and the Z score is on record as -5.65.

Take `O=C(O)[C@@H]1C[C@H](O)CCN1C(=O)c1ccccc1-c1ccccc1F`: the “% Inhibition” value is listed as 6% and the Z score is listed as -1.05.

`Cc1nnc(CNC(=O)c2ccccc2N(C)c2ccccc2)n1C`: the “% Inhibition” value was -13% and the Z score was found to be 1.19.

With `Cc1c(Cl)cccc1NC(=O)N[C@@H](C)c1nnc(C(F)(F)F)[nH]1`, the “% Inhibition” value is on record as 31% and the Z score is -3.85.

As for `O=C(O)[C@H]1CN(C(=O)CCc2cccc(F)c2)C[C@@H]1C1CC1`, the “% Inhibition” value is 1% and the Z score is -0.15.

Regarding `CC1CCCCC1NC(=O)COC(=O)c1cnn(C)c1` (centres undefined), the “% Inhibition” value was determined as 2% and the Z score was -0.38.

For `Cc1nc(NC(=O)C2(Cc3ccccc3)CC3CCC2C3)n[nH]1` (centres undefined), the “% Inhibition” value is recorded as -7% and the Z score amounted to 0.85.

`CC(C)c1oncc1NC(=O)CCCNC(=O)OC(C)(C)C`: the “% Inhibition” value is given as -9% and the Z score stood at 1.59.

For `O=C1C2CCCCC2C(=O)N1CC(O)c1ccc(Cl)cc1` (centres undefined), the “% Inhibition” value is on record as -9% and the Z score was 1.38.

As for `COc1cc(NC(=O)N2CCCCC[C@H]2c2ccccc2Cl)cc(OC)c1OC`, the “% Inhibition” value was determined as 5% and the Z score is -0.99.

`Cc1ccc(-c2cn3c4ccccc4nc3n2CCN2CCCC2)cc1`: the “% Inhibition” value is given as -4% and the Z score is listed as 0.6.

For `CCOC1CC(CO)(NCc2cnc3ccsc3c2)C1(C)C` (centres undefined), the “% Inhibition” value is -8% and the Z score is 1.03.

With `CC(C)c1nnc(NC(=O)CC[C@@H](C)[C@H]2CC[C@H]3[C@@H]4[C@@H](O)C[C@@H]5C[C@H](O)CC[C@]5(C)[C@H]4CC[C@]23C)s1`, the “% Inhibition” value was -5% and the Z score is 0.66.

`Cc1ccc(NC(=O)[C@@H]2COCCN2C)c(C)c1O`: the “% Inhibition” value is -3% and the Z score is 0.38.

Regarding `COCCN1CCCN(Cc2ccc(-c3ccn[nH]3)o2)CC1=O`, the “% Inhibition” value is given as -6% and the Z score was determined as 0.83.

For `CC[C@H](O)Cn1nc(COC)nc1C1(c2ccc(Cl)cc2)CCC1`, the “% Inhibition” value was determined as 5% and the Z score is on record as -0.75.

`CC(C)(C)c1nc(CN2CCCC2)no1`: the “% Inhibition” value is reported as -16% and the Z score was 1.83.

For the molecule `COc1ccc(-c2noc(-c3nc(Cc4ccc(F)cc4)no3)n2)cc1`, the “% Inhibition” value was -16% and the Z score worked out at 1.47.

`CCS(=O)(=O)CC(=O)Nc1cc(C)ccc1C`: the “% Inhibition” value is recorded as -18% and the Z score was 3.44.

Take `CC[C@H](C)N1CCN(Cc2cccc(Oc3ccccc3)c2)CC1`: the “% Inhibition” value is 36% and the Z score is -5.18.
